# The supplement of paper PMC8728848
# Some of the results follow.
# B1: LFA (Limax flavus) (protein)
# chain: MSVLFLAASFLLLASFELVAAQGCPRQDPGDWIVIQRRLNADVNFYRGWADYKHGFGDLRCNFWLGNEKIHQLTSHGRYKLRVEFTFNNKSYFAEYSTFKILGEADKYKLQVGGYSGNAGDALTFHNGMAFSTNDRDNDADSIDCAKVYHGAWWYKTCHESNLNGKWGSKKYGEGLNWKAKTTFTATATSSLLKIKALK
# Experiments:
# Assay in all cases: glycan array binding signal (z-score within array); higher = stronger binding
# Conditions in all cases: glycan notation: IUPAC condensed, linker removed
# [1] = target: Gal(b1-3)GlcNAc(b1-2)Man(a1-3)[Gal(b1-3)GlcNAc(b1-2)Man(a1-6)]Man(b1-4)GlcNAc(b1-4)GlcNAc
# How it was run: (§1)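 Glycan array data came from 3228 arrays in the Consortium for Functional Glycomics database, and only arrays with an available protein sequence were kept. Glycan names were put into IUPAC-condensed notation, and columns mapping to the same glycan were averaged. The binding signal is a within-array Z-score, averaged across arrays of one protein sequence run at different concentrations or buffers and across linkers. A negative Z-score can be read as non-binding.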
# [2] = target: Gal(b1-3)GlcNAc(b1-2)Man(a1-3)[Gal(b1-3)GlcNAc(b1-2)Man(a1-6)]Man(b1-4)GlcNAc(b1-4)[Fuc(a1-6)]GlcNAc
# How it was run: as §1
# [3] = target: Gal(b1-3)GlcNAc(b1-2)Man(a1-3)[GlcNAc(b1-4)][Gal(b1-3)GlcNAc(b1-2)Man(a1-6)]Man(b1-4)GlcNAc(b1-4)GlcNAc
# How it was run: as §1
# [4] = target: Gal(b1-3)GlcNAc(b1-2)[Gal(b1-3)GlcNAc(b1-6)]Man(a1-6)[Gal(b1-3)GlcNAc(b1-2)Man(a1-3)]Man(b1-4)GlcNAc(b1-4)GlcNAc
# How it was run: as §1
# [5] = target: Gal(b1-3)GlcNAc(b1-3)Gal(b1-3)GlcNAc
# How it was run: as §1
# [6] = target: Gal(b1-3)GlcNAc(b1-3)Gal(b1-4)Glc
# How it was run: as §1
# [7] = target: Gal(b1-3)GlcNAc(b1-3)Gal(b1-4)GlcNAc
# How it was run: as §1
# [8] = target: Gal(b1-3)GlcNAc(b1-3)Gal(b1-4)GlcNAc(b1-2)Man(a1-3)[Gal(b1-3)GlcNAc(b1-3)Gal(b1-4)GlcNAc(b1-2)Man(a1-6)]Man(b1-4)GlcNAc(b1-4)GlcNAc
# How it was run: as §1
# [9] = target: Gal(b1-3)GlcNAc(b1-3)Gal(b1-4)GlcNAc(b1-2)[Gal(b1-3)GlcNAc(b1-3)Gal(b1-4)GlcNAc(b1-6)]Man(a1-6)[Gal(b1-3)GlcNAc(b1-3)Gal(b1-4)GlcNAc(b1-2)Man(a1-3)]Man(b1-4)GlcNAc(b1-4)[Fuc(a1-6)]GlcNAc
# How it was run: as §1
# [10] = target: Gal(b1-3)GlcNAc(b1-3)Gal(b1-4)GlcNAc(b1-3)Gal(b1-4)GlcNAc(b1-2)[Gal(b1-3)GlcNAc(b1-3)Gal(b1-4)GlcNAc(b1-3)Gal(b1-4)GlcNAc(b1-6)]Man(a1-6)[Gal(b1-3)GlcNAc(b1-3)Gal(b1-4)GlcNAc(b1-3)Gal(b1-4)GlcNAc(b1-2)Man(a1-3)]Man(b1-4)GlcNAc(b1-4)[Fuc(a1-6)]GlcNAc
# How it was run: as §1
# [11] = target: Gal(b1-3)GlcNAc(b1-3)Gal(b1-4)GlcNAc(b1-6)[Gal(b1-3)GlcNAc(b1-3)]Gal(b1-4)Glc
# How it was run: as §1
# [12] = target: Gal(b1-3)GlcNAc(b1-3)Gal(b1-4)[Fuc(a1-3)]GlcNAc
# How it was run: as §1
# [13] = target: Gal(b1-3)GlcNAc(b1-3)Gal(b1-4)[Fuc(a1-3)]GlcNAc(b1-6)[Gal(b1-3)GlcNAc(b1-3)]Gal(b1-4)Glc
# How it was run: as §1
# [14] = target: Gal(b1-3)GlcNAc(b1-3)GalNAc
# How it was run: as §1
# [15] = target: Gal(b1-3)GlcNAc(b1-6)Gal(b1-4)GlcNAc
# How it was run: as §1
# [16] = target: Gal(b1-3)GlcNAc(b1-6)GalNAc
# How it was run: as §1
# [17] = target: Gal(b1-3)GlcNAc(b1-6)[Gal(b1-3)]GalNAc
# How it was run: as §1
# [18] = target: Gal(b1-3)GlcNAc6S
# How it was run: as §1
# [19] = target: Gal(b1-3)[Fuc(a1-4)]GlcNAc
# How it was run: as §1
# [20] = target: Gal(b1-3)[Fuc(a1-4)]GlcNAc(b1-2)Man
# How it was run: as §1
# [21] = target: Gal(b1-3)[Fuc(a1-4)]GlcNAc(b1-2)Man(a1-3)[Gal(b1-3)[Fuc(a1-4)]GlcNAc(b1-2)Man(a1-6)]Man(b1-4)GlcNAc(b1-4)[Fuc(a1-6)]GlcNAc
# How it was run: as §1
# [22] = target: Gal(b1-3)[Fuc(a1-4)]GlcNAc(b1-3)Gal(b1-3)[Fuc(a1-4)]GlcNAc
# How it was run: as §1
# [23] = target: Gal(b1-3)[Fuc(a1-4)]GlcNAc(b1-3)Gal(b1-4)[Fuc(a1-3)]GlcNAc
# How it was run: as §1
# [24] = target: Gal(b1-3)[Fuc(a1-4)]GlcNAc(b1-6)GalNAc
# How it was run: as §1
# [25] = target: Gal(b1-3)[GlcNAc(b1-6)]GalNAc
# How it was run: as §1
# [26] = target: Gal(b1-3)[Neu5Ac(a2-6)]GalNAc
# How it was run: as §1
# [27] = target: Gal(b1-3)[Neu5Ac(a2-6)]GlcNAc(b1-4)Gal(b1-4)Glc
# How it was run: as §1
# [28] = target: Gal(b1-3)[Neu5Ac(b2-6)]GalNAc
# How it was run: as §1
# [29] = target: Gal(b1-4)Gal
# How it was run: as §1
# [30] = target: Gal(b1-4)GalNAc(a1-3)[Fuc(a1-2)]Gal(b1-4)GlcNAc
# How it was run: as §1
# [31] = target: Gal(b1-4)GalNAc(b1-3)[Fuc(a1-2)]Gal(b1-4)GlcNAc
# How it was run: as §1
# [32] = target: Gal(b1-4)Glc
# How it was run: as §1
# [33] = target: Gal(b1-4)Glc6S
# How it was run: as §1
# [34] = target: Gal(b1-4)GlcNAc
# How it was run: as §1
# [35] = target: Gal(b1-4)GlcNAc(a1-6)Gal(b1-4)GlcNAc
# How it was run: as §1
# [36] = target: Gal(b1-4)GlcNAc(b1-2)Man
# How it was run: as §1
# [37] = target: Gal(b1-4)GlcNAc(b1-2)Man(a1-3)Man(b1-4)GlcNAc(b1-4)GlcNAc
# How it was run: as §1
# [38] = target: Gal(b1-4)GlcNAc(b1-2)Man(a1-3)[Gal(b1-4)GlcNAc(b1-2)Man(a1-6)]Man(b1-4)GlcNAc(b1-4)GlcNAc
# How it was run: as §1
# [39] = target: Gal(b1-4)GlcNAc(b1-2)Man(a1-3)[Gal(b1-4)GlcNAc(b1-2)Man(a1-6)]Man(b1-4)GlcNAc(b1-4)[Fuc(a1-6)]GlcNAc
# How it was run: as §1
# [40] = target: Gal(b1-4)GlcNAc(b1-2)Man(a1-3)[Gal(b1-4)GlcNAc(b1-2)Man(a1-6)][Gal(b1-4)GlcNAc(b1-4)]Man(b1-4)GlcNAc(b1-4)[Fuc(a1-6)]GlcNAc
# How it was run: as §1
# [41] = target: Gal(b1-4)GlcNAc(b1-2)Man(a1-3)[Gal(b1-4)GlcNAc(b1-2)Man(a1-6)][GlcNAc(b1-4)]Man(b1-4)GlcNAc(b1-4)[Fuc(a1-6)]GlcNAc
# How it was run: as §1
# [42] = target: Gal(b1-4)GlcNAc(b1-2)Man(a1-3)[GlcNAc(b1-2)Man(a1-6)]Man(b1-4)GlcNAc(b1-4)GlcNAc
# How it was run: as §1
# [43] = target: Gal(b1-4)GlcNAc(b1-2)Man(a1-3)[GlcNAc(b1-4)][Gal(b1-4)GlcNAc(b1-2)Man(a1-6)]Man(b1-4)GlcNAc(b1-4)GlcNAc
# How it was run: as §1
# [44] = target: Gal(b1-4)GlcNAc(b1-2)Man(a1-3)[Man(a1-6)]Man(b1-4)GlcNAc(b1-4)GlcNAc
# How it was run: as §1
# [45] = target: Gal(b1-4)GlcNAc(b1-2)Man(a1-6)Man(b1-4)GlcNAc(b1-4)GlcNAc
# How it was run: as §1
binder,measurement,setting,value
B1,glycan array binding signal (z-score),[1],0.206
same,glycan array binding signal (z-score),[2],-0.157
same,glycan array binding signal (z-score),[3],-0.23
same,glycan array binding signal (z-score),[4],-0.241
same,glycan array binding signal (z-score),[5],-0.356
same,glycan array binding signal (z-score),[6],-0.282
same,glycan array binding signal (z-score),[7],-0.352
same,glycan array binding signal (z-score),[8],-0.082
same,glycan array binding signal (z-score),[9],0.266
same,glycan array binding signal (z-score),[10],0.089
same,glycan array binding signal (z-score),[11],-0.356
same,glycan array binding signal (z-score),[12],-0.347
same,glycan array binding signal (z-score),[13],-0.365
same,glycan array binding signal (z-score),[14],0.675
same,glycan array binding signal (z-score),[15],-0.379
same,glycan array binding signal (z-score),[16],0.284
same,glycan array binding signal (z-score),[17],-0.21
same,glycan array binding signal (z-score),[18],-0.245
same,glycan array binding signal (z-score),[19],-0.277
same,glycan array binding signal (z-score),[20],0.034
same,glycan array binding signal (z-score),[21],0.669
same,glycan array binding signal (z-score),[22],0.136
same,glycan array binding signal (z-score),[23],-0.269
same,glycan array binding signal (z-score),[24],0.084
same,glycan array binding signal (z-score),[25],0.136
same,glycan array binding signal (z-score),[26],0.048
same,glycan array binding signal (z-score),[27],-0.167
same,glycan array binding signal (z-score),[28],0.143
same,glycan array binding signal (z-score),[29],0.372
same,glycan array binding signal (z-score),[30],-0.29
same,glycan array binding signal (z-score),[31],-0.289
same,glycan array binding signal (z-score),[32],-0.29
same,glycan array binding signal (z-score),[33],-0.169
same,glycan array binding signal (z-score),[34],-0.332
same,glycan array binding signal (z-score),[35],-0.293
same,glycan array binding signal (z-score),[36],-0.198
same,glycan array binding signal (z-score),[37],-0.292
same,glycan array binding signal (z-score),[38],-0.307
same,glycan array binding signal (z-score),[39],-0.047
same,glycan array binding signal (z-score),[40],-0.389
same,glycan array binding signal (z-score),[41],-0.175
same,glycan array binding signal (z-score),[42],-0.381
same,glycan array binding signal (z-score),[43],0.181
same,glycan array binding signal (z-score),[44],-0.193
same,glycan array binding signal (z-score),[45],-0.28
